Source: the supplement of paper PMC12217912
The list shows a part of the results. The full chains were built here from the parent and the listed change. Values near 0.05 are background.

B1: TEV protease; numbered along this chain (parent)
chain: MGESLFKGPRDYNPISSSICHLTNESDGHTTSLYGIGFGPFIITNKHLFRRNNGTLVVQSLHGVFKVKDTTTLQQHLVDGRDMIIIRMPKDFPPFPQKLKFREPQREERICLVTTNFQTKSMSSMVSDTSCTFPSGDGIFWKHWIQTKDGQCGSPLVSTRDGFIVGIHSASNFTNTNNYFTSVPKNFMELLTNQEAQQWVSGWRLNADSVLWGGHKVFMVKPEEPFQPVKEATQL

Variants of: B1
Experiment: raw area under fraction-flipped curve 0-4 h after induction (AUC4h, not background-subtracted), DNA-recorder readout of cleavage of the substrate (dimensionless); higher = more cleavage of the substrate by the protease variant
Conditions: temperature: 34 °C; time window: 0-4 h after rhamnose induction
Method: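 In vivo DNA recorder in E. coli TOP10(DE3) ΔrhaA at 34 °C. Each TEVp single-site mutant (parent TEVp 0) is paired with a single-site variant of the 7-mer TEVs (canonical ENLYFQ|S). The substrate sits between flexible linkers in a Bxb1-sfGFP-TEVs-SsrA fusion, so cleavage stabilises Bxb1 and speeds flipping of a recombination array, read by NGS. The value is the raw area under the fraction-flipped curve over 0-4 h after rhamnose induction (AUC4h), with ≥20 reads per time point. It is not background-subtracted; inactive controls average about 0.047.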
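Further: Bxb1 expression induced with 0.2% (w/v) L-rhamnose at OD600 near 0.5, cultures sampled hourly, flipped fraction per protease–substrate barcode pair counted by paired-end Illumina sequencing.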

| Variant | area with substrate ENLAFQS | area with substrate ENLCFQS | area with substrate ENLDFQS | area with substrate ENLEFQS | area with substrate ENLFFQS | area with substrate ENLHFQS | area with substrate ENLIFQS | area with substrate ENLKFQS | area with substrate ENLLFQS | area with substrate ENLMFQS | area with substrate ENLNFQS | area with substrate ENLQFQS | area with substrate ENLRFQS | area with substrate ENLSFQS | area with substrate ENLVFQS | area with substrate ENLWFQS | area with substrate ENLPFQS | area with substrate ENLGFQS | area with substrate ENLTFQS |
| --- | --- | --- | --- | --- | --- | --- | --- | --- | --- | --- | --- | --- | --- | --- | --- | --- | --- | --- | --- |
| I42R | 0.0528 | 0.0481 | 0.0553 | 0.0394 | 0.058 | 0.0438 | 0.0499 | 0.0625 | 0.0488 | 0.023 | 0.0509 | 0.044 | 0.0381 | 0.0455 | 0.0325 | 0.0358 |  |  |  |
| I42A | 0.0523 | 0.0569 | 0.0525 | 0.0442 | 0.0493 | 0.0567 | 0.0666 | 0.0607 | 0.0779 |  | 0.0556 |  | 0.0487 | 0.0442 |  | 0.0522 | 0.0433 |  |  |
| I42F | 0.0512 | 0.0482 | 0.057 | 0.0501 | 0.0448 | 0.0567 |  |  |  | 0.0506 | 0.0538 | 0.0646 |  | 0.0482 |  | 0.0463 | 0.0526 |  |  |
| H62A | 0.0533 | 0.0699 | 0.0586 | 0.0652 | 0.0728 | 0.078 |  | 0.0745 |  |  | 0.085 |  | 0.0894 | 0.0278 | 0.0606 |  | 0.0671 |  |  |
| L73I | 0.0723 | 0.0764 | 0.0618 | 0.0668 | 0.0798 | 0.0747 | 0.0821 | 0.0742 | 0.0711 | 0.0699 | 0.0887 | 0.0661 | 0.0797 | 0.0708 |  | 0.0697 | 0.0665 | 0.0605 |  |
| F49I | 0.0625 | 0.0499 | 0.0579 | 0.0557 | 0.0676 |  | 0.0651 | 0.0632 | 0.0596 |  | 0.0624 |  |  | 0.0538 |  |  | 0.0524 |  | 0.0606 |
| F49A | 0.0558 | 0.0314 | 0.0598 | 0.0577 | 0.06 | 0.0588 | 0.0577 | 0.0593 | 0.0574 |  | 0.0603 | 0.057 | 0.0714 | 0.0519 | 0.0636 |  |  |  |  |
| N53S | 0.0691 | 0.0739 |  |  | 0.0786 | 0.0749 | 0.0832 | 0.0811 |  |  | 0.0729 |  | 0.0725 | 0.0671 | 0.0928 | 0.0547 | 0.06 | 0.056 |  |
| N53M | 0.0643 | 0.0627 | 0.0619 | 0.0629 | 0.0735 |  | 0.0612 | 0.0642 | 0.0786 | 0.0676 | 0.0633 | 0.0438 | 0.0683 | 0.0685 | 0.0527 | 0.0582 | 0.0605 |  |  |
| N53V | 0.0634 | 0.0662 | 0.0513 | 0.0757 | 0.0773 | 0.0488 | 0.0702 | 0.0596 |  |  | 0.067 | 0.0791 |  | 0.0599 | 0.0701 | 0.0677 | 0.0647 | 0.0719 |  |
| N53C | 0.0759 |  | 0.0683 |  | 0.0963 | 0.0618 | 0.0194 | 0.0894 | 0.087 | 0.0707 |  | 0.0677 | 0.083 | 0.0712 | 0.0801 | 0.0626 | 0.0733 | 0.0723 | 0.0414 |
| I43E | 0.0485 | 0.0491 | 0.0479 | 0.054 | 0.0483 |  | 0.0792 | 0.0434 | 0.0624 | 0.0063 | 0.0436 | 0.0444 | 0.035 | 0.053 |  |  | 0.0536 | 0.0549 | 0.0377 |
| I43L | 0.0753 | 0.0678 | 0.0648 | 0.0676 | 0.0872 | 0.0664 | 0.0822 | 0.0439 |  | 0.0616 | 0.0555 |  | 0.0711 | 0.052 | 0.109 | 0.0659 | 0.0586 | 0.0648 |  |
| I43A | 0.0626 |  | 0.0725 | 0.0633 | 0.0766 | 0.063 | 0.0604 |  | 0.0628 |  | 0.065 | 0.0397 | 0.0572 | 0.0563 |  | 0.0448 | 0.0605 | 0.0541 |  |
| I43N | 0.05 | 0.0448 | 0.0498 | 0.0427 | 0.046 | 0.0465 | 0.047 | 0.0468 |  |  | 0.0497 | 0.055 | 0.045 | 0.0486 | 0.0407 | 0.0447 | 0.0661 |  |  |
| I43S | 0.0572 | 0.0497 | 0.0514 | 0.0586 | 0.0535 | 0.0387 | 0.0456 | 0.0564 | 0.0677 | 0.0553 | 0.0516 | 0.0449 | 0.054 | 0.06 |  |  | 0.0346 |  | 0.0407 |
| I43Q | 0.0419 | 0.0619 | 0.0535 | 0.0477 | 0.0519 | 0.0406 | 0.0511 | 0.0526 | 0.0499 | 0.0466 | 0.0517 | 0.0418 | 0.0486 | 0.0375 | 0.0575 | 0.0478 | 0.0507 |  | 0.0417 |
| Q75R | 0.0618 |  | 0.0639 |  | 0.0853 | 0.0688 | 0.0489 | 0.0549 |  |  | 0.0596 | 0.0771 | 0.0567 | 0.0679 |  | 0.0615 | 0.0586 | 0.0675 |  |
| Q75F | 0.0612 | 0.0618 | 0.0679 | 0.0619 | 0.111 | 0.0654 | 0.0743 | 0.0908 | 0.08 | 0.0612 | 0.0696 |  | 0.0505 | 0.0609 | 0.0807 |  | 0.0621 |  |  |
| Q75K | 0.059 |  | 0.0624 | 0.0545 | 0.0757 | 0.0568 | 0.0664 | 0.0658 | 0.0601 |  | 0.0575 | 0.0573 | 0.0607 | 0.0548 |  | 0.0531 | 0.0596 |  |  |
| F65G | 0.072 | 0.0314 | 0.0597 | 0.0331 | 0.0762 | 0.0327 | 0.0744 | 0.0649 | 0.0608 |  | 0.0468 |  | 0.0507 |  |  |  |  |  |  |
| G39R | 0.0268 |  | 0.0434 | 0.0364 | 0.0343 | 0.0394 | 0.0325 | 0.0525 | 0.0534 | 0.0391 | 0.0484 | 0.0501 | 0.0601 | 0.0343 |  |  | 0.0531 | 0.0384 |  |
| R50K | 0.0587 |  | 0.065 | 0.0397 | 0.0726 | 0.0763 | 0.0822 | 0.0807 | 0.0712 |  | 0.0623 | 0.0547 | 0.0591 |  | 0.0747 | 0.0722 | 0.0628 | 0.0603 |  |
| R50P | 0.0727 | 0.0677 | 0.0548 | 0.0632 | 0.0764 | 0.0676 | 0.0674 | 0.0702 | 0.0501 | 0.063 | 0.0678 | 0.0548 | 0.0772 | 0.0398 |  | 0.0622 | 0.0592 |  |  |
